Measurements taken from a collection of fitness landscapes (doi:10.1126/science.1257360).
This is one part of the list.

B1: PhoQ; a variant is named by its letters at X, in order, P23837 (parent)
chain: MKKLLRLFFPLSLRVRFLLATAAVVLVLSLAYGMVALIGYSVSFDKTTFRLLRGESNLFYTLAKWENNKLHVELPENIDKQSPTMTLIYDENGQLLWAQRDVPWLMKMIQPDWLKSNGFHEIEADVNDTSLLLSGDHSIQQQLQEVREDDDDAEMTHSVAVNVYPATSRMPKLTIVVVDTIPVELKSSYMVWSWFIYVLSANLLLVIPLLWVAAWWSLRPIEALAKEVRELEEHNRELLNPATTRELTSLVRNLNRLLKSERERYDKYRTTLTDLTHSLKTPLXXLQXXLRSLRSEKMSVSDAEPVMLEQISRISQQIGYYLHRASMRGGTLLSRELHPVAPLLDNLTSALNKVYQRKGVNISLDISPEISFVGEQNDFVEVMGNVLDNACKYCLEFVEISARQTDEHLYIVVEDDGPGIPLSKREVIFDRGQRVDTLRPGQGVGLAVAREITEQYEGKIVAGESMLGGARMEVIFGRQHSAPKDE

Variants of: B1
Assay: enrichment ratio after two sorts for PhoP signalling (ratio (wild type AVST 3.29)); higher = more functional
Settings: with PhoP (E. coli)

Variant | enrichment ratio
FINT | ≤ 0.25
YKRE | ≤ 0.25
FCHR | ≤ 0.25
VTEP | ≤ 0.25
ICRT | ≤ 0.25
SNLC | 11.3
KRRQ | ≤ 0.25
FANP | ≤ 0.25
FRPL | ≤ 0.25
WLPS | ≤ 0.25
VMDY | ≤ 0.25
QEPV | ≤ 0.25
YCKS | 0.866
QSEC | ≤ 0.25
VYMI | ≤ 0.25
DGLI | ≤ 0.25
WDQP | ≤ 0.25
RIGP | ≤ 0.25
MYKV | ≤ 0.25
RAKH | ≤ 0.25
VGMM | 8.27
VNVP | ≤ 0.25
CVQS | ≤ 0.25
RPDL | ≤ 0.25
SSTP | ≤ 0.25

Variant | enrichment ratio
YDAQ | ≤ 0.25
VRME | ≤ 0.25
AEQF | ≤ 0.25
GLAL | 12.9
VPDI | ≤ 0.25
YCLD | ≤ 0.25
VQMS | ≤ 0.25
LHNG | ≤ 0.25
LFMS | ≤ 0.25
RSRR | ≤ 0.25
FLYI | ≤ 0.25
QMKT | ≤ 0.25
VTHT | ≤ 0.25
LQDC | ≤ 0.25
VQKT | ≤ 0.25
HIFN | ≤ 0.25
VQNN | ≤ 0.25
KCTD | ≤ 0.25
ISVQ | ≤ 0.25
PLFK | ≤ 0.25
HIPY | ≤ 0.25
IVFV | ≤ 0.25
GHRP | ≤ 0.25
LHSQ | ≤ 0.25
IKLM | ≤ 0.25

Variant | enrichment ratio
RLKC | ≤ 0.25
VGLC | 16.6
KQMG | ≤ 0.25
EPYD | ≤ 0.25
LWIA | ≤ 0.25
YPFE | ≤ 0.25
SNRN | ≤ 0.25
VPGL | ≤ 0.25
NPGN | ≤ 0.25
TNAK | ≤ 0.25
RINA | ≤ 0.25
ITKK | ≤ 0.25
HTQK | ≤ 0.25
ACWR | ≤ 0.25
IYNR | ≤ 0.25
GHCI | ≤ 0.25
MVNT | ≤ 0.25
STIK | 4.61
HTLT | ≤ 0.25
QKPI | ≤ 0.25
QDCS | ≤ 0.25
LFKF | ≤ 0.25
LEGE | ≤ 0.25
YERF | ≤ 0.25
SFDQ | ≤ 0.25

Variant | enrichment ratio
AGAW | ≤ 0.25
YQKG | ≤ 0.25
SGTS | 7.16
PGMK | ≤ 0.25
MTKP | ≤ 0.25
TPHR | 0.681
PDAI | ≤ 0.25
LKGY | ≤ 0.25
CMAC | 23.4
LFMQ | ≤ 0.25
PSLA | ≤ 0.25
HKDV | ≤ 0.25
HRYS | ≤ 0.25
GGPD | ≤ 0.25
THEI | ≤ 0.25
EVFH | ≤ 0.25
MGRC | ≤ 0.25
MPPH | ≤ 0.25
WFMM | ≤ 0.25
KCCF | ≤ 0.25
SKQK | ≤ 0.25
RFIE | ≤ 0.25
